Screen size: about 270,000 compounds; about 620 (0.23%) were called active. The shares of active, inactive and inconclusive entries below differ from those in the screen. The call rests on the fitted dose curve; in most records, active means well fitted inhibition curve with a large enough effect in the polarisation, with a control signal flat (not every such curve was filed as active); inconclusive means small, poorly fitted or top-dose-only effect, or effect the other way, or a change in a side signal; inactive means no such curve, though single readings can be large or run the other way; the % refers to the polarisation. Potencies beside an inconclusive call are fits to weak or partial responses and may not hold up. A note “side channel” means that the fit belongs to a control or component signal, not to the main read-out.
target: Menin (Homo sapiens) (UniProt O00255); experiment: qHTS Assay for Inhibitors Targeting the Menin-MLL Interaction in MLL Related Leukemias: Competition With Texas Red Labeled MLL-derived Mutant Peptide; conditions: fluorescence polarization; FP activity change, negative = inhibition: at 61.6 µM (top of the series); on FP activity change, negative = inhibition: % of control where 0% means no effect
Potency means the concentration at half of the fitted maximal effect; tags describe the fitted curve by direction and shape or compound fluorescence and quenching.

Sequence of UniProt O00255 (O00255 whole entry, looked up): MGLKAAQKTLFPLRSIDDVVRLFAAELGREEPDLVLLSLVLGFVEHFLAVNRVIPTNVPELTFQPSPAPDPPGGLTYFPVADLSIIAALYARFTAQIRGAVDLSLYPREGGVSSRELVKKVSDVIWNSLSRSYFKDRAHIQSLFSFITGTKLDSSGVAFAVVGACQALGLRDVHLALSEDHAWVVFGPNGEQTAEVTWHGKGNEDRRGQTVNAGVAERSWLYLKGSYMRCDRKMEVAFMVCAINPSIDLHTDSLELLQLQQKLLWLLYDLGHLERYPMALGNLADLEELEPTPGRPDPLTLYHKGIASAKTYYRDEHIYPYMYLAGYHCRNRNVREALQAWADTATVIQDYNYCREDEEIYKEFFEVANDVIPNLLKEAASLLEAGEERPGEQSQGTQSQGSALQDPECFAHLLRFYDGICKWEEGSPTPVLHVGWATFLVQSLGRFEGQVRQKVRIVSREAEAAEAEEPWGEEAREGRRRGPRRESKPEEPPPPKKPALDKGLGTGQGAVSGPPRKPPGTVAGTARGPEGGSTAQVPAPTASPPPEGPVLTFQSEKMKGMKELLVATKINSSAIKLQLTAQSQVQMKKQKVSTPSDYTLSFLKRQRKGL

Potency, inconclusive:
O=C(NC(=S)Nc1nc2c(s1)CSc1ccccc1-2)c1ccccc1 17.8 µM [quencher, side channel, partial curve]
CCCCOC(=O)CN1C(=O)c2ccc(C(=O)OCCCC)cc2C1=O 15.8 µM [inhibitor, partial curve, poor fit]
Fc1ccccc1OCCCCCCN1CCCC1 39.8 µM [inhibitor, single point]
COCCNC(=O)CN(Cc1ccccc1)C(=O)CCC(=O)Nc1nccs1 15.8 µM [inhibitor, partial curve]
Nc1nc(Nc2ccccc2)nc(NCc2ccco2)c1[N+](=O)[O-] 28.2 µM [quencher, side channel, partial curve]
O=S(=O)(Nc1ccc(-n2cccc2)cc1)c1ccc(F)cc1 39.8 µM [quencher, side channel, single point]
Nc1c(S(=O)(=O)c2ccccc2)c2nc3ccccc3nc2n1/N=C/c1ccco1 20 µM [quencher, side channel, partial curve]
COc1cc(NC(=O)COC(=O)c2n[nH]c3ccccc23)c(C)cc1[N+](=O)[O-] 15.8 µM [quencher, side channel, partial curve]
CCN(CC)c1ccc(/C=N/NC(=O)c2cccc(S(=O)(=O)N3CCOCC3)c2)c(O)c1 7.94 µM [quencher, side channel, partial curve]
O=C(CNc1cccc2ccccc12)N/N=C/c1ccc(OC(=O)/C=C/c2ccco2)cc1 10 µM [quencher, side channel, partial curve]
CCOc1ccc(C(=O)N/N=C/c2ccc(SC)cc2)cc1 31.6 µM [inhibitor, single point]
Cc1cc(C)c(NC(=O)CSc2nnc(Cc3cccn3C)n2-c2ccc(F)cc2)c(C)c1 1.78 µM [inhibitor, partial curve, poor fit]
Cc1ccnc(NC(=O)c2cc3cc(F)ccc3s2)c1 15.8 µM [quencher, side channel, single point]
O=C(O)Cn1c(C(=O)Nc2nc(-c3ccccc3Cl)cs2)cc2ccccc21 31.6 µM [quencher, side channel, partial curve]
CCCN(CCC)CC(O)CN(c1ccccc1)S(=O)(=O)c1ccc(C)cc1 (stereo unspecified) 28.2 µM [fluorescent, side channel, single point]
CCOC(=O)c1[nH]c(Cc2[nH]c(C(=O)OCC)c(C)c2CCC(=O)OC)c(CCC(=O)OC)c1C 12.6 µM [fluorescent, side channel, partial curve]
O=C(NCc1cccs1)c1cc2c(s1)CS(=O)(=O)C2 25.1 µM [quencher, side channel, single point]
Cc1cccc(C(=O)Nc2ccc(NC(=O)Cc3ccc(Cl)cc3)cc2)c1 35.5 µM [fluorescent, side channel, single point]
CC(=O)c1nn(-c2ccccc2)cc1C(=O)c1cccc(Br)c1 39.8 µM [fluorescent, side channel, single point]
COc1ccc(OC)c(/C=C2\SC(=S)N(NS(=O)(=O)c3ccccc3)C2=O)c1 22.4 µM [quencher, side channel, single point]
COc1ccc(C(=O)NC(=S)Nc2ccc(N3CCCC3)cc2)cc1 14.1 µM [quencher, side channel, partial curve]
Cc1ccc(S(=O)(=O)n2ccc3c(OCCOCCNCc4ccc(F)cc4)cccc32)cc1 3.55 µM [fluorescent, side channel, full curve]
Oc1ccc(C=Nc2ccc(N3CCOCC3)cc2)c(O)c1 25.1 µM [quencher, partial curve]
CCOc1cc(-c2noc(CCCC(=O)NC3CCCCC3)n2)ccc1OC 8.91 µM [inhibitor, partial curve, poor fit]
O=C(Nc1nccs1)c1cn(-c2ccccc2)nc1-c1ccccc1 3.55 µM [quencher, side channel, full curve]
COc1ccc(S(=O)(=O)Nc2cc(C(C)C)c(O)cc2C)cc1 25.1 µM [quencher, side channel, single point]
Cc1cc(N/N=C/c2c[nH]c3ccccc23)c2ccccc2n1 39.8 µM [quencher, side channel, single point]
CCN(CC)S(=O)(=O)c1cc([N+](=O)[O-])ccc1NNC(=O)Nc1ccccc1 25.1 µM [quencher, side channel, single point]
CCCCNC(=O)N1CCN(C(c2ccccc2)c2ccccc2)CC1 12.6 µM [fluorescent, side channel, partial curve]
O=C(Oc1ccc(NC(=O)c2cc3c(cc2Br)OCO3)cc1)c1ccccc1 39.8 µM [fluorescent, side channel, single point]
O=C(Nc1cccnc1)c1cccc(S(=O)(=O)N2CCCC2)c1 12.6 µM [fluorescent, side channel, partial curve]
Cc1ccc(NC(=O)C(OC(=O)c2ccc(NC(N)=O)cc2)c2ccccc2)cc1Cl (stereo unspecified) 31.6 µM [quencher, side channel, single point]

Potency, active:
FC(F)Sc1ccc(NC(=S)NC(c2ccccc2)c2ccccc2)cc1 15.8 µM

FP activity change, negative = inhibition, inactive:
CCN(CC)CCCNC(=O)CCC(=O)NNc1nc2ccccc2c2nc(C)nn12 -1.41%
COC(=O)c1ccccc1S(=O)(=O)N(Cc1cc2ccc(OC)cc2[nH]c1=O)CC1CCCO1 (stereo unspecified) 3.58%
O=C(CSc1ncnc2scc(-c3ccccc3)c12)N1CCN(Cc2ccc3c(c2)OCO3)CC1 -11.1%
